For 31 molecules, binding signal results are on record in paper PMC9911399, “Two distinct binding modes provide the RNA-binding protein RbFox with extraordinary sequence specificity”.

Sequences and labels used below:
T1: RBFOX1 RRM RbFoxmut (Fox-RRM*) (Homo sapiens, UniProt Q9NWB1 109-208, R118D;E147R;N151S;E152T)
T1 sequence: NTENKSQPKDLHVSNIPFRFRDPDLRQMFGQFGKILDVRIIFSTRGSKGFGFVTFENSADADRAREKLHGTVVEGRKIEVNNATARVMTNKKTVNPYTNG

B1: AUUGUCU (DNA:RNA)
RNA: GGGAGACCGGAAUUCAGAUUGUCCAUUGUCUUUAAAUCCCGUCGUAGCCACCA
DNA 1: CAATCTGAATTCCGGTCTCCC
DNA 2: TGGTGGCTACGACGGGATT
B2: UUACGCG (DNA:RNA)
RNA: B1 RNA with A25U, U27A, G28C, U29G, U31G
DNA 1: CAATCTGAATTCCGGTCTCCC
DNA 2: TGGTGGCTACGACGGGATT
B3: AUUUCUC (DNA:RNA)
RNA: B1 RNA with G28U, U29C, C30U, U31C
DNA 1: CAATCTGAATTCCGGTCTCCC
DNA 2: TGGTGGCTACGACGGGATT
B4: GGUUACG (DNA:RNA)
RNA: B1 RNA with A25G, U26G, G28U, U29A, U31G
DNA 1: CAATCTGAATTCCGGTCTCCC
DNA 2: TGGTGGCTACGACGGGATT
B5: AGAACGU (DNA:RNA)
RNA: B1 RNA with U26G, U27A, G28A, U29C, C30G
DNA 1: CAATCTGAATTCCGGTCTCCC
DNA 2: TGGTGGCTACGACGGGATT
B6: CCCUUGG (DNA:RNA)
RNA: B1 RNA with A25C, U26C, U27C, G28U, C30G, U31G
DNA 1: CAATCTGAATTCCGGTCTCCC
DNA 2: TGGTGGCTACGACGGGATT
B7: AGUAAUG (DNA:RNA)
RNA: B1 RNA with U26G, G28A, U29A, C30U, U31G
DNA 1: CAATCTGAATTCCGGTCTCCC
DNA 2: TGGTGGCTACGACGGGATT
B8: AAUCCGG (DNA:RNA)
RNA: B1 RNA with U26A, G28C, U29C, C30G, U31G
DNA 1: CAATCTGAATTCCGGTCTCCC
DNA 2: TGGTGGCTACGACGGGATT
B9: UCCCCUC (DNA:RNA)
RNA: GGGAGACCGGAAUUCAGAUUGUCCUCCCCUCUUAAAUCCCGUCGUAGCCACCA
DNA 1: CAATCTGAATTCCGGTCTCCC
DNA 2: TGGTGGCTACGACGGGATT
B10: GAUCUUG (DNA:RNA)
RNA: B1 RNA with A25G, U26A, G28C, C30U, U31G
DNA 1: CAATCTGAATTCCGGTCTCCC
DNA 2: TGGTGGCTACGACGGGATT
B11: CGGCAAG (DNA:RNA)
RNA: B9 RNA with U25C, C26G, C27G, C29A, U30A, C31G
DNA 1: CAATCTGAATTCCGGTCTCCC
DNA 2: TGGTGGCTACGACGGGATT
B12: GUUGAAC (DNA:RNA)
RNA: B1 RNA with A25G, U29A, C30A, U31C
DNA 1: CAATCTGAATTCCGGTCTCCC
DNA 2: TGGTGGCTACGACGGGATT
B13: CCGACCA (DNA:RNA)
RNA: B9 RNA with U25C, C27G, C28A, U30C, C31A
DNA 1: CAATCTGAATTCCGGTCTCCC
DNA 2: TGGTGGCTACGACGGGATT
B14: CAGGUAU (DNA:RNA)
RNA: B1 RNA with A25C, U26A, U27G, C30A
DNA 1: CAATCTGAATTCCGGTCTCCC
DNA 2: TGGTGGCTACGACGGGATT
B15: CGUACAC (DNA:RNA)
RNA: B9 RNA with U25C, C26G, C27U, C28A, U30A
DNA 1: CAATCTGAATTCCGGTCTCCC
DNA 2: TGGTGGCTACGACGGGATT
B16: GCGAAUG (DNA:RNA)
RNA: B9 RNA with U25G, C27G, C28A, C29A, C31G
DNA 1: CAATCTGAATTCCGGTCTCCC
DNA 2: TGGTGGCTACGACGGGATT
B17: UAAUGAC (DNA:RNA)
RNA: B9 RNA with C26A, C27A, C28U, C29G, U30A
DNA 1: CAATCTGAATTCCGGTCTCCC
DNA 2: TGGTGGCTACGACGGGATT
B18: UCGCUAU (DNA:RNA)
RNA: B9 RNA with C27G, C29U, U30A, C31U
DNA 1: CAATCTGAATTCCGGTCTCCC
DNA 2: TGGTGGCTACGACGGGATT
B19: CGCCAAU (DNA:RNA)
RNA: B9 RNA with U25C, C26G, C29A, U30A, C31U
DNA 1: CAATCTGAATTCCGGTCTCCC
DNA 2: TGGTGGCTACGACGGGATT
B20: UAACCAA (DNA:RNA)
RNA: B9 RNA with C26A, C27A, U30A, C31A
DNA 1: CAATCTGAATTCCGGTCTCCC
DNA 2: TGGTGGCTACGACGGGATT
B21: ACCAGCG (DNA:RNA)
RNA: B1 RNA with U26C, U27C, G28A, U29G, U31G
DNA 1: CAATCTGAATTCCGGTCTCCC
DNA 2: TGGTGGCTACGACGGGATT
B22: CCACGGA (DNA:RNA)
RNA: B9 RNA with U25C, C27A, C29G, U30G, C31A
DNA 1: CAATCTGAATTCCGGTCTCCC
DNA 2: TGGTGGCTACGACGGGATT
B23: UAAGAGA (DNA:RNA)
RNA: B1 RNA with A25U, U26A, U27A, U29A, C30G, U31A
DNA 1: CAATCTGAATTCCGGTCTCCC
DNA 2: TGGTGGCTACGACGGGATT
B24: GCAGAUG (DNA:RNA)
RNA: B9 RNA with U25G, C27A, C28G, C29A, C31G
DNA 1: CAATCTGAATTCCGGTCTCCC
DNA 2: TGGTGGCTACGACGGGATT
B25: CAACGAA (DNA:RNA)
RNA: B9 RNA with U25C, C26A, C27A, C29G, U30A, C31A
DNA 1: CAATCTGAATTCCGGTCTCCC
DNA 2: TGGTGGCTACGACGGGATT
B26: AGAAGGU (DNA:RNA)
RNA: B1 RNA with U26G, U27A, G28A, U29G, C30G
DNA 1: CAATCTGAATTCCGGTCTCCC
DNA 2: TGGTGGCTACGACGGGATT
B27: GCGUACC (DNA:RNA)
RNA: B9 RNA with U25G, C27G, C28U, C29A, U30C
DNA 1: CAATCTGAATTCCGGTCTCCC
DNA 2: TGGTGGCTACGACGGGATT
B28: CAAUUAC (DNA:RNA)
RNA: B1 RNA with A25C, U26A, U27A, G28U, C30A, U31C
DNA 1: CAATCTGAATTCCGGTCTCCC
DNA 2: TGGTGGCTACGACGGGATT
B29: UCCCGCU (DNA:RNA)
RNA: B9 RNA with C29G, U30C, C31U
DNA 1: CAATCTGAATTCCGGTCTCCC
DNA 2: TGGTGGCTACGACGGGATT
B30: UCAGUGU (DNA:RNA)
RNA: B1 RNA with A25U, U26C, U27A, C30G
DNA 1: CAATCTGAATTCCGGTCTCCC
DNA 2: TGGTGGCTACGACGGGATT
B31: CUCGAUC (DNA:RNA)
RNA: B9 RNA with U25C, C26U, C28G, C29A
DNA 1: CAATCTGAATTCCGGTCTCCC
DNA 2: TGGTGGCTACGACGGGATT

Changes are numbered by the printed parent chain; changes in the protein carry UniProt numbers. The list shows a part of the results.

The target in the assay is T1, RBFOX1 RRM RbFoxmut (Fox-RRM*). In words: EMSA; HiTS-Eq, 1 nM pool, 10 min; buffer printed only for the single-RNA assays: 10 mM Tris pH 7.5, 150 mM NaCl, 3.4 mM EDTA, 0.001% NP-40, 30 C. Particulars: tags: His6 N-terminal (pET28a); label: 5' 32P. Summed up: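 These values rest on relative association constants, computed from read-count changes of each RNA species versus the control reaction and normalised to the cognate motif. Reads came from free RNA recovered by 8% native PAGE after purified RbFox RRM (wild type or mutant) at increasing concentrations was equilibrated for 10 min in 50 µL with 1 nM of a 5′-radiolabelled pool with 7 randomized nucleotides and DNA-annealed flanks.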
For orientation: In EMSA bound probe runs differently from free probe, usually more slowly.
B1: the binding signal was 0.091 KA relative to UGCAUGU. B2: the binding signal was 0.108 KA relative to UGCAUGU.

For the molecule B3, the binding signal was 0.0923 KA relative to UGCAUGU. For B4, the binding signal was 0.15 KA relative to UGCAUGU. To B5 belongs 0.149 KA relative to UGCAUGU.

For B6, the binding signal is 0.0771 KA relative to UGCAUGU. To B7 belongs 0.142 KA relative to UGCAUGU; to B8, 0.062 KA relative to UGCAUGU. In the case of B9, the binding signal was 0.0702 KA relative to UGCAUGU. For B10, the binding signal was 0.0882 KA relative to UGCAUGU. Consider B11, for which the binding signal is 0.0849 KA relative to UGCAUGU. Regarding B12, the binding signal was 0.104 KA relative to UGCAUGU. As for B13, the binding signal was 0.0776 KA relative to UGCAUGU. As for B14, the binding signal was 0.152 KA relative to UGCAUGU. As to B15, the binding signal was 0.0672 KA relative to UGCAUGU. Turning to B16, the binding signal is 1.44 KA relative to UGCAUGU. Turning to B17, the binding signal is 0.0801 KA relative to UGCAUGU. Regarding B18, the binding signal is 0.104 KA relative to UGCAUGU.

Turning to B19, the binding signal is 0.0641 KA relative to UGCAUGU. B20: the binding signal is 0.0641 KA relative to UGCAUGU. With B21, the binding signal is 0.12 KA relative to UGCAUGU. For the molecule B22, the binding signal is 0.0732 KA relative to UGCAUGU. As to B23, the binding signal is 0.0902 KA relative to UGCAUGU. To B24 belongs 0.142 KA relative to UGCAUGU; to B25, 0.0916 KA relative to UGCAUGU. With B26, the binding signal was 0.0852 KA relative to UGCAUGU. B27: the binding signal is 0.0833 KA relative to UGCAUGU. In the case of B28, the binding signal is 0.114 KA relative to UGCAUGU. For B29 the value was 0.0857 KA relative to UGCAUGU. For B30 the value was 0.172 KA relative to UGCAUGU. For B31 the value was 0.0429 KA relative to UGCAUGU.
